{"source": "PubChem BioAssay AID624255", "about": "(Broad Institute, 2012)", "note": "About 4,600 (6%) of roughly 77,000 compounds were called active. Inconclusive results, whose numbers are uncertain, are shown with a selection of clear calls.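 Rule for the calls: active = mean inhibition above about 93%, with at least 55% of replicates each passing it (limit read from the data, passing the limit was not always enough); inconclusive = only one of those two conditions holds; inactive = neither condition holds.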", "data": [{"assay": "T. cruzi intracellular proliferation inhibitors, primary screen, cell-based, beta-gal Tulahuen parasites, NIH3T3 host, luminescence (AID 624255)", "conditions": "T. cruzi beta-gal in NIH3T3, GalScreen luminescence, 90 h; at 8.34 µM; stronger effect = higher value", "values": [{"smiles": "CCC(=O)NC[C@H]1[C@@H](c2ccc(-c3cccc(F)c3)cc2)[C@H](CO)N1C(=O)CC", "inhibition": "inactive: 29.8%"}, {"smiles": "C[C@H](CO)N1C[C@H](C)[C@H](CN(C)S(C)(=O)=O)Oc2ccc(NC(=O)Cc3cn(C)c4ccccc34)cc2C1=O", "inhibition": "inactive: -16.8%"}, {"smiles": "CCCN1C[C@H](C)[C@@H](OC)CN(C)C(=O)c2ccc(NC(=O)c3ccc(F)cc3)cc2OC[C@H]1C", "inhibition": "inactive: -15.7%"}, {"smiles": "C[C@H](CO)N1C[C@H](C)[C@@H](CN(C)Cc2ccc(-c3ccccc3)cc2)Oc2c(NC(=O)c3nc4ccccc4s3)cccc2C1=O", "inhibition": "inconclusive: 98.6%"}, {"smiles": "C[C@H]1CN([C@@H](C)CO)S(=O)(=O)c2ccc(C#Cc3ccc(F)cc3)cc2O[C@@H]1CN(C)S(=O)(=O)c1ccc(F)cc1", "inhibition": "inconclusive: 88.5%"}, {"smiles": "Cc1ccccc1S(=O)(=O)N1CC[C@@H]2[C@H](CO)Nc3ccc(-c4ccc(C#N)cc4)cc3[C@@H]21", "inhibition": "inconclusive: 99.9%"}, {"smiles": "C[C@@H]1CN([C@@H](C)CO)S(=O)(=O)c2ccc(C3=CCCCC3)cc2O[C@H]1CN(C)C(=O)Cc1ccccc1", "inhibition": "inconclusive: 80.7%"}, {"smiles": "C[C@@H]1CN([C@H](C)CO)S(=O)(=O)c2ccc(C#CCC3CCCC3)cc2O[C@@H]1CN(C)C(=O)CC1CC1", "inhibition": "active: 112%"}, {"smiles": "COc1ccc(NC(=O)Nc2ccc3c(c2)C(=O)N([C@H](C)CO)C[C@H](C)[C@H](CN(C)Cc2ccc4c(c2)OCO4)OCCCC[C@H](C)O3)cc1", "inhibition": "inconclusive: 105%"}, {"smiles": "O=C(C1CCCCC1)N1CC[C@@H]2[C@H]1c1cc(C#Cc3ccc(F)cc3)ccc1N[C@@H]2CO", "inhibition": "active: 106%"}, {"smiles": "O=C(NC[C@@H]1N[C@@H](CO)[C@H]1c1ccc(-c2ccccc2F)cc1)c1ccccc1", "inhibition": "active: 109%"}, {"smiles": "COC(=O)C[C@H]1CC[C@H]2[C@@H](COc3ccc(NS(=O)(=O)c4cccc(F)c4)cc3C(=O)N2C)O1", "inhibition": "inactive: 18.7%"}, {"smiles": "C[C@@H]1CN([C@H](C)CO)S(=O)(=O)c2ccc(C#Cc3ccncc3)cc2O[C@@H]1CN(C)S(=O)(=O)c1ccc(F)cc1", "inhibition": "inconclusive: 114%"}, {"smiles": "CN(C)CC(=O)N1CCCCN2[C@@H](CO)[C@@H](c3ccc(-c4cccnc4)cc3)[C@@H]2C1", "inhibition": "inconclusive: 99.2%"}, {"smiles": "CC(C)CC#Cc1ccc2c(c1)O[C@@H](CN(C)CC1CCOCC1)[C@@H](C)CN([C@@H](C)CO)S2(=O)=O", "inhibition": "inconclusive: 120%"}, {"smiles": "CCC(=O)Nc1ccc2c(c1)OC[C@H](C)N(Cc1ccncc1)C[C@@H](C)[C@@H](OC)CN(C)C2=O", "inhibition": "inactive: -8.23%"}, {"smiles": "C[C@H]1CN([C@@H](C)CO)C(=O)c2cccc(NS(C)(=O)=O)c2O[C@@H]1CN(C)CC1CC1", "inhibition": "inactive: 26.4%"}, {"smiles": "C[C@H]1CN([C@@H](C)CO)C(=O)c2cc(C3=CCCC3)cnc2O[C@H]1CN(C)Cc1ccccn1", "inhibition": "inactive: -100%"}, {"smiles": "C[C@@H]1CN([C@H](C)CO)C(=O)c2cc(NC(=O)Nc3ccc(F)cc3)ccc2O[C@@H]1CN(C)Cc1ccc(Oc2ccccc2)cc1", "inhibition": "inconclusive: 117%"}, {"smiles": "CN(C)C(=O)c1ccc(-c2ccc3c(c2)[C@@H]2[C@@H](CCN2C(=O)c2ccc4c(c2)OCO4)[C@H](CO)N3)cc1", "inhibition": "inconclusive: 95.7%"}, {"smiles": "CCC(=O)Nc1ccc2c(c1)C(=O)N(C)C[C@H](OC)[C@H](C)CN(CCc1ccccc1)[C@H](C)CO2", "inhibition": "inactive: 0.886%"}, {"smiles": "O=C(C[C@H]1C[C@H]2c3cc(NC(=O)Cc4ccncc4)ccc3O[C@H]2[C@H](CO)O1)NCc1ccccc1", "inhibition": "inactive: 6.3%"}, {"smiles": "COc1ccc(CN(C)C[C@@H]2OCCCC[C@H](C)Oc3ccc(NC(=O)Nc4ccc(OC)cc4)cc3C(=O)N([C@@H](C)CO)C[C@@H]2C)cc1", "inhibition": "active: 99.5%"}, {"smiles": "C[C@H](CO)N1C[C@H](C)[C@H](CN(C)Cc2ccc(Cl)c(Cl)c2)Oc2c(NS(=O)(=O)c3cccs3)cccc2C1=O", "inhibition": "inactive: -84.8%"}, {"smiles": "Cc1noc(C)c1NC(=O)Nc1cccc2c1O[C@H](CN(C)Cc1ccc(C(F)(F)F)cc1)[C@H](C)CN([C@@H](C)CO)C2=O", "inhibition": "inactive: 39.3%"}, {"smiles": "Cc1ccc(S(=O)(=O)Nc2ccc3c(c2)CC(=O)N([C@H](C)CO)C[C@@H](C)[C@H](CN(C)S(=O)(=O)c2ccc(F)cc2)O3)cc1", "inhibition": "inactive: 4.79%"}, {"smiles": "C[C@@H]1CN([C@H](C)CO)C(=O)c2cccc(NS(=O)(=O)c3cccs3)c2O[C@H]1CN(C)Cc1ccc(Cl)c(Cl)c1", "inhibition": "inactive: 46%"}, {"smiles": "COc1cccc(NC(=O)N(C)C[C@H]2Oc3ncc(C#Cc4ccccc4)cc3C(=O)N([C@@H](C)CO)C[C@H]2C)c1", "inhibition": "inconclusive: 111%"}, {"smiles": "COc1cccc(S(=O)(=O)Nc2ccc3c(c2)OC[C@@H](C)N(Cc2ccccc2F)C[C@@H](C)[C@@H](OC)CN(C)C3=O)c1", "inhibition": "inconclusive: 83.3%"}, {"smiles": "CN(C)C(=O)c1cccc(-c2ccc([C@H]3[C@H](CO)N4CCCCN(C(=O)C5CCCC5)C[C@@H]34)cc2)c1", "inhibition": "inconclusive: 97.3%"}, {"smiles": "COc1ccc(S(=O)(=O)N(C)C[C@H]2Oc3ccc(NC(=O)Nc4ccc(C(F)(F)F)cc4)cc3C(=O)N([C@@H](C)CO)C[C@H]2C)cc1", "inhibition": "inconclusive: 123%"}, {"smiles": "Cc1noc(C)c1S(=O)(=O)Nc1ccc2c(c1)C(=O)N([C@H](C)CO)C[C@@H](C)[C@@H](CN(C)Cc1ccc(C(=O)O)cc1)OCCCC[C@H](C)O2", "inhibition": "inactive: 21.7%"}, {"smiles": "C[C@@H]1CN([C@@H](C)CO)C(=O)c2cc(/C=C/c3ccccc3)cnc2O[C@H]1CN(C)S(=O)(=O)c1ccccc1F", "inhibition": "active: 123%"}, {"smiles": "C[C@H]1CN([C@@H](C)CO)C(=O)Cc2cc(NS(=O)(=O)c3ccc(F)cc3)ccc2O[C@H]1CN(C)Cc1ccccc1", "inhibition": "active: 100%"}, {"smiles": "C[C@@H]1CN([C@H](C)CO)C(=O)c2cc(NC(=O)Nc3cccc4ccccc34)ccc2O[C@@H]1CN(C)Cc1ccc(Cl)c(Cl)c1", "inhibition": "inconclusive: 94.8%"}, {"smiles": "COCC#Cc1ccc2c(c1)O[C@@H](CN(C)S(=O)(=O)c1ccc(C)cc1)[C@H](C)CN([C@@H](C)CO)S2(=O)=O", "inhibition": "inactive: 84%"}, {"smiles": "C[C@@H](NC(=O)C[C@@H]1C[C@@H]2c3cc(NC(=O)c4cccnc4)ccc3O[C@@H]2[C@@H](CO)O1)c1ccccc1", "inhibition": "inactive: 51.1%"}]}]}
